Target: butyrylcholinesterase (horse serum E.C. 3.1.1.8); BChE (Equus caballus, UniProt P81908)
Assay: biochemical

Chain of UniProt P81908 (P81908 whole entry): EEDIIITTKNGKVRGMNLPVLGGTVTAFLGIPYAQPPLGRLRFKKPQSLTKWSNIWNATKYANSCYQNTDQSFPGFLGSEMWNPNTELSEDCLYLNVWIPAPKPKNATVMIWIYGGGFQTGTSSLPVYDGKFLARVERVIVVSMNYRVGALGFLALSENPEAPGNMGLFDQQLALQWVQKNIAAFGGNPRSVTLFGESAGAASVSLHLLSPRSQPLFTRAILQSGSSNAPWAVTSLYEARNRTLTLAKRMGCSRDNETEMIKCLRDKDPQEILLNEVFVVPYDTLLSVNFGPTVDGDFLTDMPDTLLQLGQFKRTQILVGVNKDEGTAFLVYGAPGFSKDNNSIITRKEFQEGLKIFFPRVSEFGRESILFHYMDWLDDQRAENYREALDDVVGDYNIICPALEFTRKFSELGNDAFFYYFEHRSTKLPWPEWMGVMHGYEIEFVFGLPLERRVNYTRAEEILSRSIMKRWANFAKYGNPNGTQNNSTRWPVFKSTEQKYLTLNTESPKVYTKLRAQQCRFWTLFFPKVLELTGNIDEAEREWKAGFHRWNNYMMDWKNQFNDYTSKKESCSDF

Compound | IC50
CC(=O)O[C@H]1C[C@@](C)(O)[C@@H]2CC=C(C)[C@@H]2[C@H]2OC(=O)[C@@H](C)[C@@H]21 [compound 3, Amberbin A] | 4.8 ± 0.15 µM
CC(=O)O[C@H]1C[C@@](C)(OC(CO)CO)[C@@H]2CC=C(C)[C@@H]2[C@H]2OC(=O)[C@@H](C)[C@@H]21 [compound 1, 8α-Acetoxy-10α-(1,3-dihydroxy-2-propyl)-1 α H, 5α H, 6β H, 7α H, 11 β H, 11α-methylguaia-3-enolide] | 17.9 ± 0.05 µM
